The supplement of paper PMC5499739
The full ranking holds about 16,000 sequences; the median of “Z-score” is about -0.37, and the highest 2% start at about 3.1. This is one part of the list.

test system: RBM10 RRM1-ZnF-RRM2 (GST-tagged construct); experiment: RNAcompete 7-mer binding Z-score; higher = stronger binding preference
How it was run: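 GST-tagged RBM10 constructs (20 pmol) and a designed pool of 241 399 RNAs up to 41 nt (1.5 nmol) were allowed to bind for 30 min at 4°C in 1 ml Hepes pH 7.8 buffer with glutathione Sepharose beads. After four 2-min washes at 4°C, bound RNA was identified by microarray hybridisation. Enrichment was scored per heptamer motif as a one-sided Z-score across the probes containing it.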

Sequence | RNAcompete 7-mer binding Z-score
UAGGCCG | 0.224
ACUGACG | -0.165
GGUGAAA | 1.83
ACACGGA | 0.618
GAGUCCC | -0.439
GUAGGGG | 4.66
AGGCGAU | 1.12
CUAAACC | -0.694
CCCUCGA | -0.825
AAACAAC | -0.198
UACUCUA | -0.617
UGAACUG | -0.249
UGUAUCU | -0.613
UGAAAAG | 0.439
AGGCUGG | 0.756
CACCCUG | -0.89
CAUACAC | -0.646
UGUAUGG | 1.1
AGCCUAU | -0.817
ACCAUUC | -0.763
UAGCAUC | -0.544
UCUUUGC | -1
GUCUAGA | -0.497

Sequence | RNAcompete 7-mer binding Z-score
AGCGGAU | 2.6
CGUCACC | -0.533
GUUGCAG | 0.439
UAAGUGA | 0.206
GAAUUAA | -0.00877
UCAUAUU | -0.621
CAUGGCU | -0.304
CCAAGAG | -0.242
GGGUAAC | 2.47
GGGCACC | 1.05
ACUCGUG | -0.602
UUGCGAC | -0.584
AGCUUAA | -0.508
UGGUUAC | 0.585
GCAUGCC | -0.559
CCCUAUA | -0.759
CUACCAC | -0.712
UUGAGUA | -0.0197
CCAGCUC | -0.821
CGGAGAU | 1.44
CACGUAC | -0.482
UGCAGAA | 0.0859
GCUGUGG | 1.01

Sequence | RNAcompete 7-mer binding Z-score
AGUGUAC | 0.228
GUCUACA | -0.493
GGGAAAG | 4.49
GCACAAA | -0.395
AGACCUG | -1.05
UCCAGGU | 0.213
ACUAUUA | -0.668
ACAUACC | -0.65
CGACCCA | -0.763
ACUCGGU | -0.544
UUUUCUA | -0.617
CUGAACC | -0.777
AUAGGGG | 4.15
AGGAGCG | 2.62
CAUAUAA | -0.468
GCGUUCA | -0.216
CCUUUCA | -0.876
UCCAAGC | -0.573
UCACCGC | -0.704
GUUGGUA | 1.62
GGCCACU | -0.621
UAGUUCC | -0.653
AAGUACC | -0.398

Sequence | RNAcompete 7-mer binding Z-score
UCUGUGG | 0.199
GCGUUCG | -0.318
CAAUCGG | 0.217
UCCCAGG | -0.114
GCCUAAA | -0.555
ACUUGCC | -1.04
AGAACGG | 1.84
GAGCAUU | -0.289
ACGGACA | 0.993
CGUAACU | -0.584
UGGGAGA | 2.56
AUAACUG | -0.351
CGCGCAU | -0.559
CACGGUU | 0.075
AGUGAAU | 0.669
GGUCAAC | 0.567
UACCAUG | -0.355
GUUAAAG | 0.548
AGUUCUC | -0.686
GGAUGAA | 2.06
AUGGCUG | 0.421
CGUUAGC | -0.453
AAACGGA | 1.84

Sequence | RNAcompete 7-mer binding Z-score
CGUAGCU | -0.57
GACUCUU | -0.948
GGCGAGU | 1.95
CUGUAAU | -0.57
AUUCACU | -0.704
AUCCCUA | -0.839
UGAGGGA | 4.05
AGAGUCU | -0.256
GCCAACU | -0.744
CACGAUC | -0.511
UCUCGUU | -0.657
GACUGGA | 1.24
GGUUGCU | 0.337
GAAGGGU | 4.15
AGUCUGC | -0.683
AUGAAUU | -0.191
ACGUUCU | -0.959
GCCCUGU | -0.683
UUGCAGC | -0.446
CGGGCCC | -0.497
GUAUCUA | -0.486
UAGCAGG | 1.44
ACUGCUA | -0.653

Sequence | RNAcompete 7-mer binding Z-score
GAUGCAG | 1.11
GACCUGU | -0.959
GGCAACU | 0.0532
AAUAUGC | -0.253
ACCGUAU | -0.755
GAUUUUA | -0.643
GCAAUGG | 1.7
GUGAGUG | 1.64
GGGUCCU | 0.563
CCGUGUC | -0.77
CUUCUAG | -0.85
GCACAAG | 0.243
AGCGCUU | -0.588
UAACUCC | -0.792
CAUUACA | -0.369
AGUUAUC | -0.435
AUGAUUA | -0.147
CUCUGGG | 0.133
ACUAAAG | -0.0816
AAUCUCA | -0.679
GGUCUGC | -0.107
UGCGUAA | -0.187
GAUGCGC | 0.0932

Sequence | RNAcompete 7-mer binding Z-score
AUUUGAA | -0.373
AAAGCGU | 0.159
AUGUUAU | -0.464
AACCAGA | -0.14
UACCACA | -0.493
AGAAACG | 0.272
UAACGUG | 0.286
UCGAAUU | -0.61
CGAACCC | -0.708
CGCACUC | -0.752
GUAACUC | -0.34
AUGCAUA | -0.271
AAGAUUA | -0.18
AAAUAAC | -0.442
UUGUAAG | 0.137
AUGAUGU | 0.108
GGCAGCA | 0.705
CUCUUCG | -0.817
AAUAUAC | -0.26
CCUGCUU | -0.941
GUUCGUU | -0.227
UCCGUAG | -0.271
ACCUCCC | -0.832

Sequence | RNAcompete 7-mer binding Z-score
CCUUCAG | -0.766
GUAGCUU | -0.366
AUGGCAA | 1.7
GGCCGCG | 0.0204
UCUCGCC | -0.792
CGAGACU | -0.537
UCCUAGA | -0.73
GAGGACC | 0.301
GAACCCU | -0.887
UCAUUGU | -0.737
CAUGCGU | -0.398
CGUUUGU | -0.573
GGUUGAU | 1.36
GCUGACU | -0.635
AGCACCU | -0.661
AGGUUGU | 0.691
UUUUGUG | -0.22
UCUCAUA | -0.795
GGAACAA | 1.5
GGCGUGG | 3.03
GACAGAC | -0.191
CGGCGCG | 0.323
GGUUUUA | 0.345
